# Measured values as given in PubChem BioAssay AID504332 (National Center for Advancing Translational Sciences (NCATS), 2011).
# Values joined by “and” are separate entries in the source; they are usually repeats but may differ in a detail not shown here. Identical values can stand only once. Hit rate of the full screen: of about 350,000 compounds, about 31,000 (8.9%) were called active. Inconclusive results, whose numbers are uncertain, are shown with a selection of clear calls. The call rests on the fitted dose curve; in most records, active means well fitted inhibition curve with a large enough effect; inconclusive means small, poorly fitted or top-dose-only effect; inactive means no such curve, though single readings can be large or run the other way. A potency beside an inconclusive call is a rough fit, not a confirmed value. More than one record can exist for a structure, and the calls need not agree.
# Biological target: Histone-lysine N-methyltransferase EHMT2 (Homo sapiens) (UniProt Q96KQ7)
# Assay: qHTS Assay for Inhibitors of Histone Lysine Methyltransferase G9a; further: nearly all actives have a fitted effect of over 75% in size
# Conditions: G9a H3K9 monomethylation, AlphaScreen, 2 h; activity, negative = inhibition: at 59 µM (top of the series) unless noted
# Method in brief: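 Using a bead-based AlphaScreen, monomethylated H3K9 product from 2 h room-temperature reactions (G9a 20 nM, peptide 500 nM, SAM 20 uM) was detected with 0.5 ug/mL rabbit anti-H3K9me1 antibody.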
# On the % scale 0 is the no-effect control and ±100 the full control effect; potency means the concentration at half of the fitted maximal effect; tags describe the fitted curve by direction and shape.
# Sequence of UniProt Q96KQ7 (Q96KQ7 whole entry, looked up): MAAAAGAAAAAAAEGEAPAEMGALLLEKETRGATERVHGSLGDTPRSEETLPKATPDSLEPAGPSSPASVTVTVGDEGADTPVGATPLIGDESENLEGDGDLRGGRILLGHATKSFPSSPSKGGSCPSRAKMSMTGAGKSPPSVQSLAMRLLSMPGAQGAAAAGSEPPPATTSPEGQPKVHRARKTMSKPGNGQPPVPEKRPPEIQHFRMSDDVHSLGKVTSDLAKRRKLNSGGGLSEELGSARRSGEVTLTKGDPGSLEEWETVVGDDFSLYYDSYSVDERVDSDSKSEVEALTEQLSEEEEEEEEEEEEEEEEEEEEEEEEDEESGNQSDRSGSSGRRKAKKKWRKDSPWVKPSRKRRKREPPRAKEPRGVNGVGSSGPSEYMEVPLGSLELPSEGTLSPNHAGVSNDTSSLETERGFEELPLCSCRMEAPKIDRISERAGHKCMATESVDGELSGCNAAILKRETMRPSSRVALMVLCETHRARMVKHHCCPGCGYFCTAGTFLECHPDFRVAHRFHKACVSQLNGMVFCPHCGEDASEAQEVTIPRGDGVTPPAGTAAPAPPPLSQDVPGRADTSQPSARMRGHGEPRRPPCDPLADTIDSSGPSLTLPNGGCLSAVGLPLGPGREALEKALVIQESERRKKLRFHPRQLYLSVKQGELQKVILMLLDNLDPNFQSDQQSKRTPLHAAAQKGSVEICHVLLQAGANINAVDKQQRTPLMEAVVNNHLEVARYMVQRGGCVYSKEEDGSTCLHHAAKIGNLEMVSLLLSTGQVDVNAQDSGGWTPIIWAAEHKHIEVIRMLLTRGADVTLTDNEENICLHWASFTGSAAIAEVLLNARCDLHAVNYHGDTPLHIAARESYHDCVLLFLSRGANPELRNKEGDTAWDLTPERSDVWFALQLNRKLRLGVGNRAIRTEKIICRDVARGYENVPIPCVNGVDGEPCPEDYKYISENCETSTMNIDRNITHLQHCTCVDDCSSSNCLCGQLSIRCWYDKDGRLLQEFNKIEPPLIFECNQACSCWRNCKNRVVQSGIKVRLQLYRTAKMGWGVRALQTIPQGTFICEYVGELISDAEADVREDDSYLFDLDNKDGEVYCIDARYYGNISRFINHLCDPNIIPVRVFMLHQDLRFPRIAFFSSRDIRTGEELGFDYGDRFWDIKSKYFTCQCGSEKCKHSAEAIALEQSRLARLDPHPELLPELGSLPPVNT
SMILES,Potency,"activity, negative = inhibition"
CN(C)c1ccc(C(=O)c2ccc(N(C)C)cc2)cc1,"inconclusive: 89.1 µM [inhibitor, single point]",–
OC(CCCN1CCC(O)(c2ccc(Cl)cc2)CC1)c1ccc(F)cc1 (stereo unspecified),"inconclusive: 89.1 µM [inhibitor, single point]",–
COC(=O)CSc1nc2sc3c(c2c(=O)n1C1CCCCC1)CCN(C)C3,active: 44.7 µM,–
O=C1C2(Cl)C3(Cl)C4(Cl)C(Cl)(Cl)C5(Cl)C3(Cl)C1(Cl)C5(Cl)C24Cl (stereo unspecified),–,inactive: -1.92% [at 0.501 µM]
CC(=O)O[C@H]1C(=O)[C@@]2(C)C([C@H](OC(=O)c3ccccc3)[C@]3(O)C[C@H](OC(=O)[C@H](O)[C@@H](NC(=O)c4ccccc4)c4ccccc4)C(C)=C1C3(C)C)[C@]1(OC(C)=O)CO[C@@H]1C[C@@H]2OC(=O)[C@H](C)NC(=O)c1ccc(-c2c3ccc(=O)cc-3oc3cc(O)ccc23)c(C(=O)O)c1 (stereo partly specified),–,inactive: 52.9% [at 12.7 µM]
CCOc1c(Cl)cc(CNCCc2c[nH]c3ccccc23)cc1OC,"inconclusive: 63.1 µM [inhibitor, partial curve, poor fit]",–
COc1ccc2[nH]c(C)c(CCNCc3cccnc3)c2c1,"inconclusive: 10 µM [inhibitor, partial curve, poor fit]",–
CCS(=O)(=O)C1=NN2C(=N)/C(=C\c3ccc(OC(=O)c4ccco4)cc3)C(=O)N=C2S1,active: 39.8 µM,–
Cc1ccc(N2CCN(CCc3ccccc3)CC2)cc1,"inconclusive: 25.1 µM [inhibitor, single point]",–
O=C1NC(=O)N(Cc2ccccc2)C(=O)/C1=C\C=C\c1ccco1,"inconclusive: 22.4 µM [inhibitor, single point]",–
CN(C(=O)Oc1cccc2cccnc12)c1ccccc1,"inconclusive: 56.2 µM [inhibitor, partial curve, poor fit]",–
CCOP(=O)(OCC)/C(C#N)=C/c1ccoc1,"inconclusive: 50.1 µM [inhibitor, partial curve, poor fit]",–
CCOc1c(P(=S)(N(C)C)N(C)C)c(C)nn1-c1ccccc1,"inconclusive: 56.2 µM [inhibitor, partial curve, poor fit]",–
CC(O)C(C)OC(=O)[C@@H]1C[C@@H]2c3cccc4c3c(cn4C(C)C)C[C@H]2N(C)C1 (stereo partly specified),active: 44.7 µM,–
COc1ccc(NC(=O)N2CC3(CCN(C(=O)Oc4ccccc4)CC3)C2)cc1,–,inactive: -9.19% [at 12.7 µM]
c1ccc2nc3ccccc3nc2c1,active: 44.7 µM,–
C/C(CC(c1ccccc1)c1c(O)c2ccccc2oc1=O)=N\NC(N)=S (stereo unspecified),"inconclusive: 79.4 µM [inhibitor, single point]",–
c1ccc2sc(C3(N4CCCCC4)CCCCC3)cc2c1,active: 8.91 µM,–
CN(C)CCCN=Cc1c(O)n(CCc2ccc(F)cc2)c(=O)[nH]c1=O,"inconclusive: 79.4 µM [inhibitor, partial curve, poor fit]",–
C=CCn1c(O)c(C(CC)=NCCN2CCN(C(=S)NC)CC2)c(=O)[nH]c1=O,"inconclusive: 79.4 µM [inhibitor, partial curve, poor fit]",–
CC1=CC(C)C2C(=O)N(CCC[N+](C)(C)C)C(=O)C2C1 (stereo unspecified),"inconclusive: 79.4 µM [inhibitor, single point]",–
CCOC(=O)Cn1cc(C(=O)c2ccccc2F)c2ccccc21,–,inactive: 6.84% [at 12.7 µM]

SMILES,Potency,"activity, negative = inhibition"
COc1cc(OC)c(OC)cc1CN1CCN(C(=O)Cc2ccccc2)CC1,active: 7.94 µM,–
CCCCn1c(O)c(C(CC)=Nc2cccc(C(=O)O)c2)c(=O)[nH]c1=O,–,inconclusive: -78.7% [inhibitor]
CN(C)c1ccc(C=C2C(=O)NC(=O)NC2=O)cc1[N+](=O)[O-],"inconclusive: 44.7 µM [inhibitor, partial curve, poor fit]",–
CCOP(=O)(OCC)C(NS(=O)(=O)c1ccccc1)C(Cl)(Cl)Cl (stereo unspecified),"inconclusive: 39.8 µM [inhibitor, partial curve, poor fit]",–
COCCCn1c(-c2ccc(OC)cc2)cc(C(=O)NC2CCCCCCC2)c1C,–,inactive: -12.2%
C=CCn1c(CSc2ccccc2[N+](=O)[O-])n[nH]c1=S,active: 1.26 µM,–
O=C(CN1CCCCC1)c1ccc2c(c1)OCO2,"inconclusive: 44.7 µM [inhibitor, partial curve]",–
O=C(CNC(=O)c1cccc(Cl)c1)Nc1ccc(Br)cc1C(=O)c1ccccc1,"inconclusive: 2.24 µM [inhibitor, full curve]",–
COc1ccc(/C=C/C(=O)NC(=S)N2C[C@H]3C[C@H](C2)c2cccc(=O)n2C3)cc1OC,active: 35.5 µM,–
COc1ccc(C(=O)N2CCOCC2)cc1S(=O)(=O)N1CCC(C)CC1,"inconclusive: 31.6 µM [inhibitor, partial curve, poor fit]",–
CC1(C)CC(=O)C(C2(O)C(=O)NC(=O)NC2=O)=C(O)C1,"inconclusive: 89.1 µM [inhibitor, single point]",–
CC(=O)c1c(COC(=O)c2cccnc2)nc2ccccc2[n+]1[O-],active: 10 µM,–
Clc1ccc2c(c1)C(c1ccccc1Cl)=NCc1nnc(N3CCN(CCOc4ccccc4)CC3)n1-2,"inconclusive: 79.4 µM [inhibitor, partial curve, poor fit]",–
O=C(CCC1N=C2c3ccccc3N=C(SCc3cccc(Cl)c3)N2C1=O)N1CCN(c2ccccc2)CC1 (stereo unspecified),"inconclusive: 22.4 µM [inhibitor, partial curve, poor fit]",–
Cn1cc(NC(=O)CCl)cn1,"inconclusive: 0.141 µM [inhibitor, partial curve, poor fit]",–
C[C@]12CCC3C(CC[C@H]4C[C@H](O)CC[C@]34C)C1CC[C@@H]2C(=O)CO (stereo partly specified),"inconclusive: 50.1 µM [inhibitor, partial curve] and inconclusive: 891 nM [inhibitor, full curve]",–
C[N+](C)(C)c1ccccc1,active: 20 µM,–
O=c1cc(-c2ccc(O)c(O)c2)oc2cc(O)cc(O)c12,active: 10 µM,–
N#CC(C#N)=NNc1ccc(OC(F)(F)F)cc1,active: 10 µM,–
C=CCn1c(O)c(C(CC)=NCCCO)c(=O)[nH]c1=O,–,inactive: -0.322% [at 102 µM]
O[C@H]1C2CCC1C(N1CCCCC1)CC2 (stereo partly specified),"inconclusive: 1 µM [inhibitor, partial curve, poor fit]",–
CC([C@H](O)c1ccccc1)N(C)C (stereo partly specified),"inconclusive: 2.51 µM [inhibitor, partial curve, poor fit]",–

SMILES,Potency,"activity, negative = inhibition"
CCCc1cc(=O)oc2cc(OCc3ccc(C(=O)O)o3)ccc12,"inconclusive: 79.4 µM [inhibitor, single point]",–
COc1ccc(/C=C2\C(=O)NC(=O)N(CCC3=CCCCC3)C2=O)c(OC)c1,active: 11.2 µM,–
CCOP1(=S)Oc2cc3c(cc2C(C(=O)OC)(C(F)(F)F)O1)OCO3 (stereo unspecified),"inconclusive: 5.62 µM [inhibitor, single point]",–
Cn1cc(Br)c(C(=O)Nc2ccc3c(C(F)(F)F)cc(=O)oc3c2)n1,"inconclusive: 89.1 µM [inhibitor, single point]",–
c1ccc2sc(SNC3CCCCC3)nc2c1,active: 1.78 µM,–
COC(=O)c1[nH]c2ccc(C)cc2c1NC(=O)Oc1ccccc1,"inconclusive: 1.58 µM [inhibitor, full curve, poor fit]",–
OC1(CN2CCOCC2)C2CC3CC(C2)CC1C3 (stereo unspecified),"inconclusive: 1.26 µM [inhibitor, partial curve, poor fit]",–
CN1CCN(c2c(F)cc([N+](=O)[O-])c(N)c2Br)CC1,"inconclusive: 56.2 µM [inhibitor, single point]",–
CSC(=Nc1ccccc1)c1c(O)n(C)c(=O)n(C)c1=O,"inconclusive: 35.5 µM [inhibitor, single point]",–
COC(=O)C(O)(c1ccc(NC(=O)c2ccccc2)cc1)C(F)(F)F (stereo unspecified),–,inactive: 7.67% [at 102 µM]
Cc1ccc(Cn2nnnc2CN2CCC(n3nnc4ccccc43)CC2)cc1,active: 50.1 µM,–
CCCCn1c(O)c(C(C)=NC(Cc2c[nH]c3ccccc23)C(=O)OC)c(=O)[nH]c1=O (stereo unspecified),–,inconclusive: -52.2% [inhibitor]
Cc1nc2sccc2c(=O)n1-c1ccccc1Cl,"inconclusive: 6.31 µM [inhibitor, single point]",–
O=C(O)c1ccc(N=Cc2c(O)[nH]c(=O)[nH]c2=O)cc1,"inconclusive: 89.1 µM [inhibitor, partial curve, poor fit]",–
CC1CCN(S(=O)(=O)c2ccc(NN=C(C#N)C#N)cc2)CC1,"inconclusive: 2.24 µM [inhibitor, partial curve, poor fit]",–
CCCCCC[C@H]1C(=O)O[C@H](C)[C@H](NC(=O)c2cccc(NC=O)c2O)C(=O)O[C@@H](C)[C@H]1OC(=O)CC(C)C,–,inactive: 1.47% [at 21.5 µM]
Cc1cc(/C=C2/C(=O)NC(=O)N(C)C2=O)c(C)n1-c1ccccc1,"inconclusive: 3.16 µM [inhibitor, full curve]",–
CCN(CC)c1ccc(CN2CC=C(c3ccc(F)cc3)CC2)cc1,active: 44.7 µM,–
O=C1C(Cl)=C(Cl)C(=O)C(Cl)=C1Cl,–,inconclusive: -114% [inhibitor] [at 2.33 µM]
CCOc1cc(-c2nc3c(C)cccn3c2NCC2CCCO2)ccc1O (stereo unspecified),"inconclusive: 31.6 µM [inhibitor, single point]",–
O=C(Cc1ccccc1)N1CCN(Cc2ccc([N+](=O)[O-])cc2)CC1,active: 8.91 µM,–
CC(C)COP(=O)(c1ccc(N(C)C)cc1)C(Nc1ccccc1)c1cccnc1 (stereo unspecified),"inconclusive: 79.4 µM [inhibitor, single point]",–
